# B1: Ab121: anti-pro/latent myostatin antibody; CDR sequences in Table 2d (antibody)
# heavy: QVTLRESGPALVKPTQTLTLTCTVSGFSFSTSGMVVNWIRQPPGKALEWLAMIDWDADNIVYNSALKSRLTISKDTSKNQVVLTMTNMDPVDTATYYCAKDTGSGWFDAFDIWGQGTMVTVSSASTKGPSVFPLAPCSRSTSESTAALGCLVKDYFPEPVTVSWNSGALTSGVHTFPAVLQSSGLYSLSSVVTVPSSSLGTKTYTCNVDHKPSNTKVDKRV[human IgG4 Fc with S228P (EU numbers) left out]
# light: DIVMTQSPDSLAVSLGERATINCKSSQSVLYSSTNQNFLAWYQQKPGQPPKLLIYQASTLQNGVPDRFSGSGSGTDFTLTISSLQAEDVAVYYCQQYLTTPYTFGGGTKVEIKRTVAAPSVFIFPPSDEQLKSGTASVVCLLNNFYPREAKVQWKVDNALQSGNSQESVTEQDSKDSTYSLSSTLTLSKADYEKHKVYACEVTHQGLSSPVTKSFNRGEC
# B2: Ab127: anti-pro/latent myostatin antibody; CDR sequences in Table 2d (antibody)
# heavy: EVQLVESGGGLVQPGGSLRLSCTASGFTFGSYPMDWVRQAPGKGLEWVSYISGRGDVTYYADSVKGRFTISRDNAKNTLYLQMNSLRAEDTAVYYCAKVQSPSELLWFGELLPVDYWGQGTLVTVSSASTKGPSVFPLAPCSRSTSESTAALGCLVKDYFPEPVTVSWNSGALTSGVHTFPAVLQSSGLYSLSSVVTVPSSSLGTKTYTCNVDHKPSNTKVDKRV[human IgG4 Fc with S228P (EU numbers) left out]
# light: DIQMTQSPSSLSASVGDRVTITCQASQVIKTWLNWYQQKPGKAPKLLIYDASNLQRGVPSRFSGSGSGTDFTFTISSLQPEDIATYYCQQSASTPITFGGGTKVEIKRTVAAPSVFIFPPSDEQLKSGTASVVCLLNNFYPREAKVQWKVDNALQSGNSQESVTEQDSKDSTYSLSSTLTLSKADYEKHKVYACEVTHQGLSSPVTKSFNRGEC
# B3: Ab128: anti-pro/latent myostatin antibody; CDR sequences in Table 2d (antibody)
# heavy: EVQLVESGGGLVQPGGSLRLSCTASGFTLSSYSMDWVRQAPGKGLEWVSYITGSGDTTYYADSVKGRFTISRDNAKNTLYLQMNSLRAEDTAVYYCARGFGWISGWAEDYFDYWGQGTLVTVSSASTKGPSVFPLAPCSRSTSESTAALGCLVKDYFPEPVTVSWNSGALTSGVHTFPAVLQSSGLYSLSSVVTVPSSSLGTKTYTCNVDHKPSNTKVDKRV[human IgG4 Fc with S228P (EU numbers) left out]
# light: DIQMTQSPSSLSASVGDRVTITCQASQSVYSYLNWYQQKPGKAPKLLIYGASRLEGGVPSRFSGSGSGTDFTFTISSLQPEDIATYYCQQHSTDQRTFGGGTKVEIKRTVAAPSVFIFPPSDEQLKSGTASVVCLLNNFYPREAKVQWKVDNALQSGNSQESVTEQDSKDSTYSLSSTLTLSKADYEKHKVYACEVTHQGLSSPVTKSFNRGEC
# Tests used:
# human pro-myostatin = human pro-myostatin (Homo sapiens, UniProt O14793); assay: Biacore 8k SPR binding affinity, human pro-myostatin
# Source text: (§1) The Biacore™ 8k SPR system was utilized to evaluate the binding affinity of myostatin antibodies to biotinylated human, murine, and cyno pro-myostatin. Biotin CAPture kit and sensor chips (Cytiva) were utilized in these experiments to immobilize the various antigens, followed by flowing a range of concentrations of each of the test antibodies.
# cyno pro-myostatin = cyno pro-myostatin (Macaca fascicularis, UniProt Q95J86); assay: Biacore 8k SPR binding affinity, cyno pro-myostatin; set-up: species or system cynomolgus monkey
# Source text: as §1
# murine pro-myostatin = murine pro-myostatin (Mus musculus, UniProt O08689); assay: Biacore 8k SPR binding affinity, murine pro-myostatin
# Source text: as §1
# [1] = dexamethasone-induced muscle atrophy mouse model; format: in vivo; details: dexamethasone treated mice, antibody 3 mg/kg/day; FIG. 6A, 9A
# Source text: To evaluate in vivo efficacy of the novel myostatin-selective inhibitors disclosed herein, the ability of the antibodies to preserve lean muscle mass was examined in a dexamethasone-induced atrophy mouse model. An excess of glucocorticoids directly stimulates myostatin production via interactions with a glucocorticoid response element in the myostatin promoter, thus inducing loss of muscle mass. As shown herein, antibodies of the disclosure prevented glucocorticoid-induced muscle atrophy.
# C57BL6 male mice (n=8) at 13-14 weeks of age were given normal drinking water or water containing dexamethasone at a concentration of 2.5 mg/kg (17.5 grams dexamethasone per liter of drinking water) to induce atrophy. […] Body weight was measured daily. Body composition was measured by qNMR to determine lean mass pre-dosing, at day 7, and at day 14. After 14 days of dexamethasone exposure, the animals were terminated, and body weight and gastrocnemius weight were measured. […]
# C57BL6 male mice (n=8) at 13-14 weeks of age were given normal drinking water or water containing dexamethasone at a concentration of 2.5 mg/kg to induce atrophy. […] Muscle mass at days −1, 6 and 13 was measured using qNMR. At the end of the study (day 14), serum from each animal was collected and changes in body weight, body composition (qNMR), left and right gastrocnemius weight, and left and right quadriceps weight were measured. […]
Molecule,Ka (human pro-myostatin) [M⁻¹ s⁻¹],Kd (1/s) (human pro-myostatin) [s⁻¹],Ka (cyno pro-myostatin) [M⁻¹ s⁻¹],Kd (1/s) (cyno pro-myostatin) [s⁻¹],Ka (murine pro-myostatin) [M⁻¹ s⁻¹],Kd (1/s) (murine pro-myostatin) [s⁻¹],maintenance of body weight (percent change from baseline) [1]
B1,3.16e+06,0.000318,3.45e+06,0.000365,3.24e+06,0.000608,to a greater extent than Ab2
B2,813000,0.000213,821000,0.000269,815000,0.000265,–
B3,1.27e+06,0.000463,905000,0.000736,914000,0.000655,–

# From patent publication US20260209325A1, “SELECTIVE AND POTENT INHIBITORY ANTIBODIES OF MYOSTATIN ACTIVATION” (SCHOLAR ROCK, INC., priority 2022, published 2026)
